{
  "source": "PubChem BioAssay AID938",
  "about": "(National Center for Advancing Translational Sciences (NCATS), 2007)",
  "note": "The campaign covered roughly 73,000 compounds. About 1,800 (2.5%) were called active. Inconclusive results, whose numbers are uncertain, are shown with a selection of clear calls. Calls come from the whole dose curve; as a rule, active = well fitted activation curve with a large enough effect; inconclusive = small, poorly fitted or top-dose-only effect; inactive = no such curve, though single readings can be large or run the other way. No potency is given beside an inconclusive call; the fits are too rough. Potency is the fitted concentration of half-maximal effect; tags give direction and shape of the fitted curve.",
  "data": [
    {"assay": "qHTS Assay for Agonists of the Thyroid Stimulating Hormone Receptor: Activators of Intracellular cAMP Concentrations in Parental HEK 293; note: nearly all actives have a fitted effect of over 55% in size; for activation: % of control where 0% means no effect", "conditions": "parental HEK293 CNG cAMP sensor, membrane potential fluorescence; activation: at 57.1 µM (top of the series) unless noted", "how_it_was_run": "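Counterscreen for endogenous-receptor signalling: CNG-channel HEK 293 cells report cAMP rise by membrane depolarization. After 60 min dye equilibration with 100 uM RO 20-1724, compounds incubated 30 min before bottom-read fluorescence at 590 nm.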", "values": [
      {"molecule": "O=C(Nc1ccc(S(=O)(=O)N2CCCCCC2)cc1)c1ccco1", "Potency": "inconclusive [activator, single point]"},
      {"molecule": "CCCn1c(SCc2ccc(Cl)cc2)nc2c1c(=O)[nH]c(=O)n2C", "Potency": "inconclusive [activator, single point]"},
      {"molecule": "CC(C)[C@@H](CC(=O)N[C@@H]1CCCC[C@H]1C(=O)N[C@H](CC(=O)N[C@@H](CCC(=O)O)CC(=O)O)Cc1c[nH]c2ccccc12)NC(=O)C[C@H](Cc1ccccc1)NC(=O)[C@@H]1CCCC[C@H]1N", "activation": "inactive: -17.1%"},
      {"molecule": "COc1ccccc1C(c1nnnn1C(C)(C)C)N1CCN(Cc2ccncc2)CC1", "note": "(stereo not drawn)", "Potency": "inconclusive [activator, partial curve]"},
      {"molecule": "O=C(CSc1nnc(COc2ccc(Cl)cc2)n1Cc1ccco1)c1ccccc1F", "Potency": "active: 25.1 µM"},
      {"molecule": "CCNc1ncc2nc(-c3ccc(F)cc3)c(=O)n(-c3ccc(OC)cc3)c2n1", "activation": "inactive: 25.9%"},
      {"molecule": "CCN(C(=O)c1cc(Cl)ccc1OC)C1CCCCC1", "Potency": "inconclusive [activator, partial curve]"},
      {"molecule": "COC(=O)c1cnn2c(C(F)(F)F)cc(-c3ccc(F)cc3)nc12", "Potency": "inconclusive [activator, partial curve, poor fit]"},
      {"molecule": "O=C(c1ccccc1CCc1ccccc1)N1CCOCC1", "Potency": "inconclusive [activator, single point]"},
      {"molecule": "CCCC1c2c(ccc3ccccc23)Oc2ccc3ccccc3c21", "activation": "inactive: 6.65% [at 11.4 µM]"},
      {"molecule": "O=C(NCc1ccccc1)NC1(C(=O)N2CCN(c3ccccc3)CC2)CCCCC1", "Potency": "inconclusive [activator, single point]"},
      {"molecule": "CCOC(=O)Cn1c(CN(Cc2ccccc2)Cc2ccccc2)nc2c1c(=O)[nH]c(=O)n2C", "Potency": "inconclusive [activator, single point]"},
      {"molecule": "Cc1noc(C)c1S(=O)(=O)N(CC(=O)NCc1ccc2c(c1)OCO2)c1ccc(C(C)C)cc1", "Potency": "inconclusive [activator, single point]"},
      {"molecule": "c1ccc(Sc2nc(N3CCCCC3)nc(N3CCCCC3)n2)nc1", "Potency": "inconclusive [activator, single point]"},
      {"molecule": "c1ccc(CN2CCC(N3CCN(Cc4ccc5c(c4)OCO5)CC3)CC2)cc1", "Potency": "inconclusive [activator, single point]"},
      {"molecule": "Cc1ccc(S(=O)(=O)Cc2ccc(C(=O)N3CCCC3)o2)cc1", "Potency": "inconclusive [activator, single point]"},
      {"molecule": "Cc1ccc(CNC(=O)C2(CC(C)C)C=CCN2C(=O)c2ccccc2)o1", "note": "(stereo not drawn)", "Potency": "inconclusive [activator, partial curve]"},
      {"molecule": "Cc1ccc(Cn2ccc(NC(=O)c3cc(-c4ccccc4)on3)n2)cc1", "Potency": "inconclusive [activator, partial curve]"},
      {"molecule": "O=C1Nc2cc(C(=O)N3CCN(Cc4ccccc4)CC3)ccc2SC1N1CCOCC1", "note": "(stereo not drawn)", "Potency": "inconclusive [activator, single point]"},
      {"molecule": "O=S(=O)(NCc1ccccc1)c1ccc(S(=O)(=O)N(Cc2ccccn2)Cc2ccco2)cc1", "Potency": "inconclusive [activator, full curve]"},
      {"molecule": "COc1cccc(NC(=O)c2cccnc2)c1", "Potency": "inconclusive [activator, full curve]"},
      {"molecule": "CN(C)c1ncc2nc(-c3cc(F)cc(F)c3)c(=O)n(C3CC3)c2n1", "activation": "inactive: -12.3%"},
      {"molecule": "Nn1c(SCC(=O)NCCC2=CCCCC2)nnc1C1CCCCC1", "Potency": "inconclusive [activator, single point]"},
      {"molecule": "C=C1CCO[C@@]2([C@H](O)[C@@](C)(O)CO)NC(=O)[C@]1(O)NC2=O", "Potency": "inconclusive [activator, single point]"},
      {"molecule": "Cc1ccc(C)c(N2CCN(C(=O)CCCn3c(=S)[nH]c4cc5c(cc4c3=O)OCO5)CC2)c1", "Potency": "inconclusive [activator, single point]"},
      {"molecule": "COc1cccc(-c2nccc(NCc3cccs3)n2)c1", "Potency": "inconclusive [activator, partial curve]"},
      {"molecule": "N#CC1=C(N)SC(N)=C(C#N)C1c1cccc(Oc2ccccc2)c1", "Potency": "inconclusive [activator, single point]"},
      {"molecule": "CCC/C(O)=C1\\C(=O)CC(C)(C)CC1=Nc1ccc(OC)cc1OC", "Potency": "inconclusive [activator, partial curve]"},
      {"molecule": "O=c1cc(-c2ccccc2O)oc2c(O)c(O)ccc12", "activation": "inactive: -2.58%"},
      {"molecule": "Cc1ccc(Nc2nc(CSc3nnc(-c4cccs4)o3)cs2)cc1", "activation": "inactive: 19.7%"},
      {"molecule": "Cc1cnc(CNc2ccnc(-c3ccoc3)n2)cn1", "activation": "inactive: 25.8%"},
      {"molecule": "CC(=O)Nc1cccc(NC(=O)CSc2ncc(-c3ccc(Cl)cc3)n2Cc2ccco2)c1", "Potency": "active: 25.1 µM"},
      {"molecule": "CN(C(=O)c1c(Cl)nc2sccn12)C1CCCCC1", "Potency": "inconclusive [activator, partial curve]"},
      {"molecule": "CCNc1oc(COc2cccc(C)c2)nc1C#N", "Potency": "inconclusive [activator, single point]"},
      {"molecule": "COC(=O)[C@@]1(Cc2ccc(OC)cc2)[C@H]2c3cc(C(=O)N4CCCC4)n(Cc4ccc(Cl)c(C(F)(F)F)c4)c3C[C@H]2CN1C(=O)c1ccccc1", "Potency": "inconclusive [activator, full curve]"},
      {"molecule": "CCCCn1c2nc3ccccc3nc2c2c(=O)n(CCC(C)C)cnc21", "activation": "inactive: 6.98%"},
      {"molecule": "Nc1nc(Cl)cc(NCCO)n1", "activation": "inactive: -2.27% [at 11.4 µM]"},
      {"molecule": "Nc1c(OCC(=O)O)ccc2cc(S(=O)(=O)O)ccc12", "activation": "inactive: 1.48% [at 11.4 µM]"},
      {"molecule": "Nc1nnc(CCCCc2cccs2)o1", "Potency": "active: 0.501 µM"},
      {"molecule": "COc1ccc(C)cc1NS(=O)(=O)c1cn(C)c(=O)n(C)c1=O", "Potency": "inconclusive [activator, partial curve]"},
      {"molecule": "CN(C)Cc1cc(C(C)(C)C)cc(CNC2CCCCC2)c1O", "Potency": "inconclusive [activator, single point]"},
      {"molecule": "CCOC(=O)c1sc(-c2ccccc2)cc1NC(=O)CSc1nnnn1C", "activation": "inconclusive: 37.5% [activator]"},
      {"molecule": "CCCn1c(-c2ccc(F)cc2)nc2c(NCCN3CCSCC3)nc(C)nc21", "Potency": "inconclusive [activator, partial curve]"}
    ]}
  ]
}
